The name of at least one read-out is uncertain.
How the values were obtained:
[1] = tested on: Streptococcus pneumoniae (Chester, ATCC49619); assay: Broth microdilution MIC assay, Streptococcus pneumoniae; format: cell-based; settings: MIC score; for Antibacterial activity Streptococcus pneumoniae: Table AA; for antibacterial activity SP: Table BB
[2] = tested on: Staphylococcus aureus MRSA (COL); format: cell-based; settings: MIC score; for Antibacterial activity Staphylococcus aureus (MRSA): Table AA; for antibacterial activity MRSA: Table BB

`Cc1[nH]c(-c2ccc(-c3ccc(F)cc3)s2)nc1-c1ccccc1` [Compound 7] was tested, and the “Antibacterial activity Streptococcus pneumoniae” value [1] was 3 (the compound has an MIC100 of 2-5 μg/ml) and the “antibacterial activity SP” value [1] was 3 (the compound has an MIC100 of 2-5 μg/ml).
With `Cc1[nH]c(-c2cc(C)n(-c3ccc(Cl)cc3)c2C)nc1-c1ccccc1` [Compound 8] the “Antibacterial activity Streptococcus pneumoniae” value [1] was 3 (the compound has an MIC100 of 2-5 μg/ml), the “antibacterial activity SP” value [1] was 3 (the compound has an MIC100 of 2-5 μg/ml) and the “Antibacterial activity Staphylococcus aureus (MRSA)” value [2] was 1 (the compound has an MIC100 of 20-50 μg/ml or an MIC50 of <10 μg/ml). For the same molecule, the “antibacterial activity MRSA” value [2] was 1 (the compound has an MIC100 of 20-50 μg/ml or an MIC50 of <10 μg/ml).
In the case of `Cc1[nH]c(-c2cc(C)n(-c3ccc(F)cc3F)c2C)nc1-c1ccccc1` [Compound 9], the “Antibacterial activity Streptococcus pneumoniae” value [1] is reported as 2 (the compound has an MIC100 of 6-10 μg/ml), the “antibacterial activity SP” value [1] is reported as 3 (the compound has an MIC100 of 2-5 μg/ml) and the “Antibacterial activity Staphylococcus aureus (MRSA)” value [2] is reported as 1 (the compound has an MIC100 of 20-50 μg/ml or an MIC50 of <10 μg/ml). For the same molecule, the “antibacterial activity MRSA” value [2] was 1 (the compound has an MIC100 of 20-50 μg/ml or an MIC50 of <10 μg/ml).
In the case of `Cc1[nH]c(-c2cc(C)n(-c3ccc(F)c(F)c3F)c2C)nc1-c1ccccc1` [Compound 10], the “Antibacterial activity Streptococcus pneumoniae” value [1] is reported as 2 (the compound has an MIC100 of 6-10 μg/ml) and the “antibacterial activity SP” value [1] is reported as 3 (the compound has an MIC100 of 2-5 μg/ml).
`Cc1[nH]c(-c2csc(-c3ccc(F)cc3)n2)nc1-c1ccccc1` [Compound 11] was tested, and the “Antibacterial activity Streptococcus pneumoniae” value [1] was 3 (the compound has an MIC100 of 2-5 μg/ml) and the “antibacterial activity SP” value [1] was 3 (the compound has an MIC100 of 2-5 μg/ml).
For `Cc1[nH]c(-c2ccc(-c3cccc(Cl)c3)s2)nc1-c1ccccc1` [Compound 12], the “Antibacterial activity Streptococcus pneumoniae” value [1] was 3 (the compound has an MIC100 of 2-5 μg/ml) and the “antibacterial activity SP” value [1] was 3 (the compound has an MIC100 of 2-5 μg/ml).
For `Cc1[nH]c(-c2ccc(-c3cccc(Br)c3)s2)nc1-c1ccccc1` [Compound 13], the “Antibacterial activity Streptococcus pneumoniae” value [1] was 2 (the compound has an MIC100 of 6-10 μg/ml) and the “antibacterial activity SP” value [1] was 3 (the compound has an MIC100 of 2-5 μg/ml).
For `Cc1[nH]c(-c2csc(-c3cccc(Br)c3)n2)nc1-c1ccccc1` [Compound 14], the “Antibacterial activity Streptococcus pneumoniae” value [1] was 3 (the compound has an MIC100 of 2-5 μg/ml) and the “antibacterial activity SP” value [1] was 3 (the compound has an MIC100 of 2-5 μg/ml).
With `Cc1[nH]c(-c2ccc(-c3ccccc3C(F)(F)F)o2)nc1-c1ccc(Br)cc1` [Compound 25] the “Antibacterial activity Streptococcus pneumoniae” value [1] was 3 (the compound has an MIC100 of 2-5 μg/ml) and the “antibacterial activity SP” value [1] was 3 (the compound has an MIC100 of 2-5 μg/ml).
For `C#Cc1ccc(-c2nc(-c3ccc(-c4ccccc4C(F)(F)F)o3)[nH]c2C)cc1` [Compound 27], the “Antibacterial activity Streptococcus pneumoniae” value [1] was 4 (the compound has an MIC of 1 μg/ml or less for preventing streptococcal growth 100% (MIC100)) and the “antibacterial activity SP” value [1] was 4 (the compound has an MIC of 1 μg/ml or less for preventing streptococcal growth 100% (MIC100)).
In the case of `Cc1[nH]c(-c2cc(C)n(-c3cccc(C(F)(F)F)c3)c2C)nc1-c1ccccc1` [Compound 36], the “Antibacterial activity Streptococcus pneumoniae” value [1] is reported as 3 (the compound has an MIC100 of 2-5 μg/ml), the “antibacterial activity SP” value [1] is reported as 3 (the compound has an MIC100 of 2-5 μg/ml) and the “Antibacterial activity Staphylococcus aureus (MRSA)” value [2] is reported as 2 (the compound has an MIC100 of 11-20 μg/ml). For the same molecule, the “antibacterial activity MRSA” value [2] was 2 (the compound has an MIC100 of 11-20 μg/ml).
In the case of `Cc1ccc(-c2ccc(-c3nc(-c4ccccc4)c(C)[nH]3)s2)cc1` [Compound 54], the “Antibacterial activity Streptococcus pneumoniae” value [1] is reported as 2 (the compound has an MIC100 of 6-10 μg/ml) and the “antibacterial activity SP” value [1] is reported as 2 (the compound has an MIC100 of 6-10 μg/ml).
`Cc1ccc(-c2ncc(-c3nc(-c4ccccc4)c(C)[nH]3)s2)cc1` [Compound 55] was tested, and the “Antibacterial activity Streptococcus pneumoniae” value [1] was 3 (the compound has an MIC100 of 2-5 μg/ml) and the “antibacterial activity SP” value [1] was 3 (the compound has an MIC100 of 2-5 μg/ml).
With `Cc1ccc(-c2nc(-c3nc(-c4ccccc4)c(C)[nH]3)cs2)cc1` [Compound 56] the “Antibacterial activity Streptococcus pneumoniae” value [1] was 3 (the compound has an MIC100 of 2-5 μg/ml) and the “antibacterial activity SP” value [1] was 3 (the compound has an MIC100 of 2-5 μg/ml).
With `Cc1ccc(-c2nc(-c3nc(-c4ccccc4)c(C)[nH]3)co2)cc1` [Compound 57] the “Antibacterial activity Streptococcus pneumoniae” value [1] was 3 (the compound has an MIC100 of 2-5 μg/ml) and the “antibacterial activity SP” value [1] was 3 (the compound has an MIC100 of 2-5 μg/ml).
`Cc1[nH]c(-c2cc(C)n(-c3ccc(C(C)C)cc3)c2C)nc1-c1ccccc1` [Compound 58] was tested, and the “Antibacterial activity Streptococcus pneumoniae” value [1] was 4 (the compound has an MIC of 1 μg/ml or less for preventing streptococcal growth 100% (MIC100)), the “antibacterial activity SP” value [1] was 4 (the compound has an MIC of 1 μg/ml or less for preventing streptococcal growth 100% (MIC100)) and the “antibacterial activity MRSA” value [2] was 1 (the compound has an MIC100 of 20-50 μg/ml or an MIC50 of <10 μg/ml).
In the case of `Cc1[nH]c(-c2cc(C)n(-c3ccc4c(c3)CCC4)c2C)nc1-c1ccccc1` [Compound 59], the “Antibacterial activity Streptococcus pneumoniae” value [1] is reported as 3 (the compound has an MIC100 of 2-5 μg/ml) and the “antibacterial activity SP” value [1] is reported as 3 (the compound has an MIC100 of 2-5 μg/ml).
In the case of `Cc1[nH]c(-c2coc(-c3ccccc3C(F)(F)F)c2)nc1-c1ccccc1` [Compound 72], the “Antibacterial activity Streptococcus pneumoniae” value [1] is reported as 2 (the compound has an MIC100 of 6-10 μg/ml) and the “antibacterial activity SP” value [1] is reported as 2 (the compound has an MIC100 of 6-10 μg/ml).
In the case of `Cc1[nH]c(-c2ccc(-c3ccccc3)s2)nc1-c1ccccc1` [Compound 74], the “Antibacterial activity Streptococcus pneumoniae” value [1] is reported as 3 (the compound has an MIC100 of 2-5 μg/ml) and the “antibacterial activity SP” value [1] is reported as 3 (the compound has an MIC100 of 2-5 μg/ml).
With `Cc1nc(-c2ccc(-c3ccccc3F)o2)[nH]c1Cc1ccc(O)cc1` [Compound 78] the “Antibacterial activity Streptococcus pneumoniae” value [1] was 1 (the compound has an MIC100 of 11-20 μg/ml or an MIC50 of <10 μg/ml).
With `COc1ccc(-c2ccc(-c3nc(-c4ccc(O)cc4)c(C)[nH]3)o2)cc1` [Compound 79] the “Antibacterial activity Streptococcus pneumoniae” value [1] was 3 (the compound has an MIC100 of 2-5 μg/ml).
With `Clc1ccccc1-c1ccc(-c2ncc(-c3ccccc3)[nH]2)s1` [Compound 81] the “Antibacterial activity Streptococcus pneumoniae” value [1] was 1 (the compound has an MIC100 of 11-20 μg/ml or an MIC50 of <10 μg/ml).
`CCCc1[nH]c(-c2ccc(-c3ccccc3Cl)s2)nc1C` [Compound 82] was tested, and the “Antibacterial activity Streptococcus pneumoniae” value [1] was 4 (the compound has an MIC of 1 μg/ml or less for preventing streptococcal growth 100% (MIC100)) and the “Antibacterial activity Staphylococcus aureus (MRSA)” value [2] was 3 (the compound has an MIC100 of 3-10 μg/ml).
With `Brc1ccccc1-c1ccc(-c2ncc(-c3ccccc3)[nH]2)o1` [Compound 83] the “Antibacterial activity Streptococcus pneumoniae” value [1] was 3 (the compound has an MIC100 of 2-5 μg/ml).
In the case of `FC(F)(F)c1ccccc1-c1ccc(-c2nc3c([nH]2)CCCC3)o1` [Compound 87], the “Antibacterial activity Streptococcus pneumoniae” value [1] is reported as 4 (the compound has an MIC of 1 μg/ml or less for preventing streptococcal growth 100% (MIC100)) and the “Antibacterial activity Staphylococcus aureus (MRSA)” value [2] is reported as 4 (the compound has an MIC of 1 μg/ml to 3 μg/ml for preventing staphylococcal growth 100% (MIC100)).
For `FC(F)(F)Oc1ccccc1-c1ccc(-c2nc3c([nH]2)CCCC3)o1` [Compound 88], the “Antibacterial activity Streptococcus pneumoniae” value [1] was 4 (the compound has an MIC of 1 μg/ml or less for preventing streptococcal growth 100% (MIC100)) and the “Antibacterial activity Staphylococcus aureus (MRSA)” value [2] was 4 (the compound has an MIC of 1 μg/ml to 3 μg/ml for preventing staphylococcal growth 100% (MIC100)).
For `CCCc1[nH]c(-c2ccc(-c3ccccc3OC(F)(F)F)o2)nc1C` [Compound 89], the “Antibacterial activity Streptococcus pneumoniae” value [1] was 4 (the compound has an MIC of 1 μg/ml or less for preventing streptococcal growth 100% (MIC100)) and the “Antibacterial activity Staphylococcus aureus (MRSA)” value [2] was 4 (the compound has an MIC of 1 μg/ml to 3 μg/ml for preventing staphylococcal growth 100% (MIC100)).
For `CCCCc1nc(-c2ccc(-c3ccccc3C(F)(F)F)o2)[nH]c1C` [Compound 90], the “Antibacterial activity Streptococcus pneumoniae” value [1] was 3 (the compound has an MIC100 of 2-5 μg/ml) and the “Antibacterial activity Staphylococcus aureus (MRSA)” value [2] was 4 (the compound has an MIC of 1 μg/ml to 3 μg/ml for preventing staphylococcal growth 100% (MIC100)).
With `CCCCc1[nH]c(-c2ccc(-c3ccccc3OC(F)(F)F)o2)nc1C` [Compound 91] the “Antibacterial activity Streptococcus pneumoniae” value [1] was 4 (the compound has an MIC of 1 μg/ml or less for preventing streptococcal growth 100% (MIC100)) and the “Antibacterial activity Staphylococcus aureus (MRSA)” value [2] was 4 (the compound has an MIC of 1 μg/ml to 3 μg/ml for preventing staphylococcal growth 100% (MIC100)).
In the case of `Cc1nc(-c2ccc(-c3ccccc3C(F)(F)F)o2)[nH]c1CC(C)C` [Compound 92], the “Antibacterial activity Streptococcus pneumoniae” value [1] is reported as 4 (the compound has an MIC of 1 μg/ml or less for preventing streptococcal growth 100% (MIC100)) and the “Antibacterial activity Staphylococcus aureus (MRSA)” value [2] is reported as 4 (the compound has an MIC of 1 μg/ml to 3 μg/ml for preventing staphylococcal growth 100% (MIC100)).
For `Cc1nc(-c2ccc(-c3ccccc3OC(F)(F)F)o2)[nH]c1CC(C)C` [Compound 93], the “Antibacterial activity Streptococcus pneumoniae” value [1] was 4 (the compound has an MIC of 1 μg/ml or less for preventing streptococcal growth 100% (MIC100)).
With `CCCc1[nH]c(-c2ccc(-c3ccccc3)o2)nc1C` [Compound 94] the “Antibacterial activity Streptococcus pneumoniae” value [1] was 3 (the compound has an MIC100 of 2-5 μg/ml) and the “Antibacterial activity Staphylococcus aureus (MRSA)” value [2] was 3 (the compound has an MIC100 of 3-10 μg/ml).
With `CCCc1[nH]c(-c2ccc(-c3ccccc3Cl)o2)nc1C` [Compound 95] the “Antibacterial activity Streptococcus pneumoniae” value [1] was 4 (the compound has an MIC of 1 μg/ml or less for preventing streptococcal growth 100% (MIC100)) and the “Antibacterial activity Staphylococcus aureus (MRSA)” value [2] was 4 (the compound has an MIC of 1 μg/ml to 3 μg/ml for preventing staphylococcal growth 100% (MIC100)).
With `CCCc1nc(-c2ccc(-c3ccccc3OC)o2)[nH]c1C` [Compound 102] the “Antibacterial activity Streptococcus pneumoniae” value [1] was 3 (the compound has an MIC100 of 2-5 μg/ml).
In the case of `CCCc1[nH]c(-c2ccc(-c3cc(F)ccc3C(F)(F)F)o2)nc1C` [Compound 111], the “Antibacterial activity Streptococcus pneumoniae” value [1] is reported as 3 (the compound has an MIC100 of 2-5 μg/ml).
`CCCc1nc(-c2sc(-c3ccccc3C(F)(F)F)c3c2OCCO3)[nH]c1C` [Compound 114] was tested, and the “Antibacterial activity Staphylococcus aureus (MRSA)” value [2] was 3 (the compound has an MIC100 of 3-10 μg/ml).
With `CCCc1nc(-c2cc(C)c(-c3ccccc3C(F)(F)F)s2)[nH]c1C` [Compound 115] the “Antibacterial activity Streptococcus pneumoniae” value [1] was 4 (the compound has an MIC of 1 μg/ml or less for preventing streptococcal growth 100% (MIC100)).
`COc1cccc(-c2nc(-c3nc(-c4ccccc4)c(C)[nH]3)cs2)c1` [Compound 116] was tested, and the “Antibacterial activity Streptococcus pneumoniae” value [1] was 3 (the compound has an MIC100 of 2-5 μg/ml).
With `Cc1[nH]c(-c2ccc(-c3ccc(Br)cc3)s2)nc1-c1ccccc1` [Compound 118] the “Antibacterial activity Streptococcus pneumoniae” value [1] was 1 (the compound has an MIC100 of 11-20 μg/ml or an MIC50 of <10 μg/ml).

From patent US10314820B2, “Imidazole-based heterocyclic compounds” (priority 2014, dated 2019)
